From the supplement of paper PMC12230231

tested on: SIVsab (simian immunodeficiency virus of sabaeus monkeys), single-cycle GFP reporter, in CRFK cells; test: enrichment among infected cells over input (fold); higher = weaker restriction; settings: library: human / rhesus combinations
Method: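 Pools of CRFK cells expressing variants of the TRIM5α v1 loop were challenged with the single-cycle reporter, sorted by GFP and sequenced; mean of two replicates.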

Question: “MASGILLNVKEEVTCPICLELLTEPLSLHCGHSFCQACITANHKKSMLYKEGERSCPVCRISYQPENIQPNRHVANIVEKLREVKLSPEEGQKVDHCARHGEKLLLFCQEDSKVICWLCERSQEHRGHHTFLMEEVAQEYHVKLQTALEMLRQKQQEAEKLEADIREEKASWKIQIDYDKTNVSADFEQLREILDWEESNELQNLEKEEEDILKSLTKSETEMVQQTQYMRELISELEHRLQGSMMDLLQGVDGIIKRIENMTLKKPKTFHKNQRRVFRAPDLKGMLDMFRELTDARRYWVDVTLAPNNISHAVIAEDKRQVSSRNPQIMYQAPGTLYTFQSFVNFNYCTGVLGSQSITSGKHYWEVDVSKKSAWILGVCAGFQSDAMYNIEQNENYQPKYGYWVIGLQEGVKYSVFQDGSSHTPFAPFIVPLSVIICPDRVGVFVDYEACTVSFFNITNHGFLIYKFSQCSFSKPVFPYLNPRKCTVPMTLCSPSS [rhesus TRIM5α, 332-344 = QAPGTLYTFQSFV]” was tested. Which enrichment did it give?
Answer: The enrichment was 1.67 ± 0.88.

Question: For “MASGILLNVKEEVTCPICLELLTEPLSLHCGHSFCQACITANHKKSMLYKEGERSCPVCRISYQPENIQPNRHVANIVEKLREVKLSPEEGQKVDHCARHGEKLLLFCQEDSKVICWLCERSQEHRGHHTFLMEEVAQEYHVKLQTALEMLRQKQQEAEKLEADIREEKASWKIQIDYDKTNVSADFEQLREILDWEESNELQNLEKEEEDILKSLTKSETEMVQQTQYMRELISELEHRLQGSMMDLLQGVDGIIKRIENMTLKKPKTFHKNQRRVFRAPDLKGMLDMFRELTDARRYWVDVTLAPNNISHAVIAEDKRQVSSRNPQIMYQAPGTRFTFPTFTNFNYCTGVLGSQSITSGKHYWEVDVSKKSAWILGVCAGFQSDAMYNIEQNENYQPKYGYWVIGLQEGVKYSVFQDGSSHTPFAPFIVPLSVIICPDRVGVFVDYEACTVSFFNITNHGFLIYKFSQCSFSKPVFPYLNPRKCTVPMTLCSPSS [rhesus TRIM5α, 332-344 = QAPGTRFTFPTFT]”, which enrichment is on record?
Answer: The enrichment was 0.903 ± 0.14.

Question: How did the enrichment turn out when “MASGILLNVKEEVTCPICLELLTEPLSLHCGHSFCQACITANHKKSMLYKEGERSCPVCRISYQPENIQPNRHVANIVEKLREVKLSPEEGQKVDHCARHGEKLLLFCQEDSKVICWLCERSQEHRGHHTFLMEEVAQEYHVKLQTALEMLRQKQQEAEKLEADIREEKASWKIQIDYDKTNVSADFEQLREILDWEESNELQNLEKEEEDILKSLTKSETEMVQQTQYMRELISELEHRLQGSMMDLLQGVDGIIKRIENMTLKKPKTFHKNQRRVFRAPDLKGMLDMFRELTDARRYWVDVTLAPNNISHAVIAEDKRQVSSRNPQIMYGARGTLFQTFVNFNYCTGVLGSQSITSGKHYWEVDVSKKSAWILGVCAGFQSDAMYNIEQNENYQPKYGYWVIGLQEGVKYSVFQDGSSHTPFAPFIVPLSVIICPDRVGVFVDYEACTVSFFNITNHGFLIYKFSQCSFSKPVFPYLNPRKCTVPMTLCSPSS [rhesus TRIM5α, 332-344 = GARGTLFQTFV]” was run?
Answer: The enrichment was 0.572 ± 0.63.

Question: How did the enrichment turn out when “MASGILLNVKEEVTCPICLELLTEPLSLHCGHSFCQACITANHKKSMLYKEGERSCPVCRISYQPENIQPNRHVANIVEKLREVKLSPEEGQKVDHCARHGEKLLLFCQEDSKVICWLCERSQEHRGHHTFLMEEVAQEYHVKLQTALEMLRQKQQEAEKLEADIREEKASWKIQIDYDKTNVSADFEQLREILDWEESNELQNLEKEEEDILKSLTKSETEMVQQTQYMRELISELEHRLQGSMMDLLQGVDGIIKRIENMTLKKPKTFHKNQRRVFRAPDLKGMLDMFRELTDARRYWVDVTLAPNNISHAVIAEDKRQVSSRNPQIMYGAPGTRYTFQSLTNFNYCTGVLGSQSITSGKHYWEVDVSKKSAWILGVCAGFQSDAMYNIEQNENYQPKYGYWVIGLQEGVKYSVFQDGSSHTPFAPFIVPLSVIICPDRVGVFVDYEACTVSFFNITNHGFLIYKFSQCSFSKPVFPYLNPRKCTVPMTLCSPSS [rhesus TRIM5α, 332-344 = GAPGTRYTFQSLT]” was run?
Answer: Its enrichment is 1.52 ± 0.86.

Question: “MASGILLNVKEEVTCPICLELLTEPLSLHCGHSFCQACITANHKKSMLYKEGERSCPVCRISYQPENIQPNRHVANIVEKLREVKLSPEEGQKVDHCARHGEKLLLFCQEDSKVICWLCERSQEHRGHHTFLMEEVAQEYHVKLQTALEMLRQKQQEAEKLEADIREEKASWKIQIDYDKTNVSADFEQLREILDWEESNELQNLEKEEEDILKSLTKSETEMVQQTQYMRELISELEHRLQGSMMDLLQGVDGIIKRIENMTLKKPKTFHKNQRRVFRAPDLKGMLDMFRELTDARRYWVDVTLAPNNISHAVIAEDKRQVSSRNPQIMYQAPGTLFTFQTLVNFNYCTGVLGSQSITSGKHYWEVDVSKKSAWILGVCAGFQSDAMYNIEQNENYQPKYGYWVIGLQEGVKYSVFQDGSSHTPFAPFIVPLSVIICPDRVGVFVDYEACTVSFFNITNHGFLIYKFSQCSFSKPVFPYLNPRKCTVPMTLCSPSS [rhesus TRIM5α, 332-344 = QAPGTLFTFQTLV]” was tested. Which enrichment did it give?
Answer: Its enrichment is 1.16 ± 0.65.

Question: How did the enrichment turn out when “MASGILLNVKEEVTCPICLELLTEPLSLHCGHSFCQACITANHKKSMLYKEGERSCPVCRISYQPENIQPNRHVANIVEKLREVKLSPEEGQKVDHCARHGEKLLLFCQEDSKVICWLCERSQEHRGHHTFLMEEVAQEYHVKLQTALEMLRQKQQEAEKLEADIREEKASWKIQIDYDKTNVSADFEQLREILDWEESNELQNLEKEEEDILKSLTKSETEMVQQTQYMRELISELEHRLQGSMMDLLQGVDGIIKRIENMTLKKPKTFHKNQRRVFRAPDLKGMLDMFRELTDARRYWVDVTLAPNNISHAVIAEDKRQVSSRNPQIMYGARGTRFTFQSFVNFNYCTGVLGSQSITSGKHYWEVDVSKKSAWILGVCAGFQSDAMYNIEQNENYQPKYGYWVIGLQEGVKYSVFQDGSSHTPFAPFIVPLSVIICPDRVGVFVDYEACTVSFFNITNHGFLIYKFSQCSFSKPVFPYLNPRKCTVPMTLCSPSS [rhesus TRIM5α, 332-344 = GARGTRFTFQSFV]” was run?
Answer: The enrichment was 0.807 ± 0.2.

Question: “MASGILLNVKEEVTCPICLELLTEPLSLHCGHSFCQACITANHKKSMLYKEGERSCPVCRISYQPENIQPNRHVANIVEKLREVKLSPEEGQKVDHCARHGEKLLLFCQEDSKVICWLCERSQEHRGHHTFLMEEVAQEYHVKLQTALEMLRQKQQEAEKLEADIREEKASWKIQIDYDKTNVSADFEQLREILDWEESNELQNLEKEEEDILKSLTKSETEMVQQTQYMRELISELEHRLQGSMMDLLQGVDGIIKRIENMTLKKPKTFHKNQRRVFRAPDLKGMLDMFRELTDARRYWVDVTLAPNNISHAVIAEDKRQVSSRNPQIMYGARGTLYTFQSLTNFNYCTGVLGSQSITSGKHYWEVDVSKKSAWILGVCAGFQSDAMYNIEQNENYQPKYGYWVIGLQEGVKYSVFQDGSSHTPFAPFIVPLSVIICPDRVGVFVDYEACTVSFFNITNHGFLIYKFSQCSFSKPVFPYLNPRKCTVPMTLCSPSS [rhesus TRIM5α, 332-344 = GARGTLYTFQSLT]” was tested. Which enrichment did it give?
Answer: The enrichment was 1.21 ± 0.061.

Question: For “MASGILLNVKEEVTCPICLELLTEPLSLHCGHSFCQACITANHKKSMLYKEGERSCPVCRISYQPENIQPNRHVANIVEKLREVKLSPEEGQKVDHCARHGEKLLLFCQEDSKVICWLCERSQEHRGHHTFLMEEVAQEYHVKLQTALEMLRQKQQEAEKLEADIREEKASWKIQIDYDKTNVSADFEQLREILDWEESNELQNLEKEEEDILKSLTKSETEMVQQTQYMRELISELEHRLQGSMMDLLQGVDGIIKRIENMTLKKPKTFHKNQRRVFRAPDLKGMLDMFRELTDARRYWVDVTLAPNNISHAVIAEDKRQVSSRNPQIMYQAPGTLYTFQTFTNFNYCTGVLGSQSITSGKHYWEVDVSKKSAWILGVCAGFQSDAMYNIEQNENYQPKYGYWVIGLQEGVKYSVFQDGSSHTPFAPFIVPLSVIICPDRVGVFVDYEACTVSFFNITNHGFLIYKFSQCSFSKPVFPYLNPRKCTVPMTLCSPSS [rhesus TRIM5α, 332-344 = QAPGTLYTFQTFT]”, which enrichment is on record?
Answer: The enrichment was 1.18 ± 0.53.

± gives the standard deviation of the averaged measurements. Restriction of a single-cycle SIVsab GFP reporter by TRIM5α v1-loop variants in CRFK cells. Human variants: read share among cells still uninfected after two challenges over input, higher = gained restriction. Rhesus variants: share among infected cells over input, higher = lost restriction. Reporter dose not given per row. No active / inactive call per row; the paper calls a change when both replicates lie above its controls (mean + 2 SD of stop or wild-type variants, or the top frameshift score). Residues outside the varied loop are taken from Swiss-Prot. The paper reads the human single-substitution scores as noise; they and the rhesus combinations repeat poorly (rank correlation 0.3 to 0.4), indel scores repeat only for the top variants, rhesus substitutions well (0.9).
